The values below come from ChEMBL document CHEMBL4888484, “Replenishing the malaria drug discovery pipeline: Screening and hit evaluation of the MMV Hit Generation Library 1 (HGL1) against asexual blood stage Plasmodium falciparum ,using a nano luciferase reporter read-out” (2022).

Out of some 150,000 compounds screened, about 540 (0.36%) showed an effect of 50% or more. Some of the results follow.

By % Inhibition is commonly meant the relative decrease from the control value, in per cent.

The subject of the test is Plasmodium falciparum. The test can be described thus: Primary screen in NF54 nanoGlo assay, in single point, at 2uM, 72h; a lower Z score goes with more inhibition. Format: functional, Erythrocyte. To be noted: timepoint 72 hour.
Turning to `Cc1nc(CC(=O)Nc2ccc3nc(C)sc3c2)cs1`, the “% Inhibition” value is -4% and the Z score came out at 0.56.
In the case of `O=C1Nc2ccccc2C[C@H]1c1ccccc1`, the “% Inhibition” value is recorded as -5% and the Z score amounted to 0.73.
Take `COC[C@]1(S(=O)(=O)NCc2cn(C3CCC3)nn2)C[C@@H]1C`: the “% Inhibition” value came to 0% and the Z score is 0.02.
On the same counts, the results for `CCCC[C@@H](C(=O)Nc1cc(C)on1)N1CCNC(=O)C1` are 12% and -1.53.
On to `CNC(=O)CN(C)S(=O)(=O)c1ccc(C)c(F)c1`, for which the “% Inhibition” value was -6% and the Z score came out at 0.57.
On the same counts, the results for `CC(C)Cc1cc(C(=O)OCC(F)F)[nH]n1` are 5% and -0.62.
As for `CN(C)S(=O)(=O)c1ccc(-c2[nH]ncc2C(=O)N2CCCC2)o1`, the “% Inhibition” value was -6% and the Z score is on record as 0.68.
As to `CCn1cc(CC(=O)N2CCN[C@H](c3ccc(OC)cc3)C2)nn1`, the “% Inhibition” value is on record as -10% and the Z score was determined as 1.71.
For the compound `Cc1noc(C)c1CN1C(=O)[C@@H]2CC[C@H]1CN(Cc1noc(C3CC3)n1)C2`, the “% Inhibition” value came to 5% and the Z score is reported as -1.
On the same counts, the results for `C[C@](O)(CNC(=O)C1CCC1)c1cc2ccccc2s1` are -9% and 1.17.
Taken in the same sequence, the figures for `CC1CCCC(C)N1C(=O)CN(C)CCO` (stereo not drawn) were -6% and 0.8.
On the same counts, the results for `CC[C@]1(c2ccc(C)cc2)CC(=O)N(Cc2nnc(C)n2C)C1=O` are -6% and 0.62.
As to `CC(C)=CCCC(C)NC1CCc2[nH]ncc2C1` (stereo not drawn), the “% Inhibition” value was 12% and the Z score is listed as -1.61.
On the same counts, the results for `Cc1nc(CS(=O)(=O)NCCc2cnoc2)cs1` are -20% and 1.98.
On the same counts, the results for `O=C(Nc1nc(C2CC2)no1)C1CCCCC1` are 6% and -0.81.
On the same counts, the results for `O=C(COc1c(F)cc(F)cc1Br)NCC(F)(F)F` are -12% and 1.07.
On to `CC(C)(C)CC(NC(=O)N1CCOCC1c1nc[nH]n1)C(F)(F)F` (stereo not drawn), for which the “% Inhibition” value is given as -4% and the Z score was found to be 0.86.
On the same counts, the results for `C[C@]1(C(=O)N2CCOc3cccc(F)c3C2)CCC(=O)NC1` are -10% and 1.43.
Taken in the same sequence, the figures for `Cc1ccc(-c2nc(CCCN3CCCCC3=O)n(-c3ccccn3)n2)o1` were -13% and 1.75.
On the same counts, the results for `O=C(COCC1CC1)Nc1nc(CN2CCCCCC2)cs1` are -2% and 0.34.
In the case of `Cc1ccc(S(=O)(=O)N2CCN(C(=O)c3cc(C4CC4)nc4c3c(C)nn4C(C)C)CC2)cc1`, the “% Inhibition” value is recorded as 30% and the Z score was 0.07.
On the same counts, the results for `COc1ccc(-c2csc(C)n2)cc1CC(=O)N(C)[C@H]1CCS(=O)(=O)C1` are -7% and 1.23.
Taken in the same sequence, the figures for `COC(=O)c1ccc(N2CCN(C(=O)Cc3sc(C)nc3C)CC2)cc1` were -1% and 0.13.
On the same counts, the results for `COCCO[C@H]1CN(C2CCN(C(=O)c3cc(C)n(C)n3)CC2)C12CCCCC2` are -10% and 1.89.
In the case of `COc1cc2nc(NC(=O)c3cccn3C)[nH]c2cc1OC`, the “% Inhibition” value was -5% and the Z score was 0.6.
On to `CC[C@@H](C(=O)Nc1ccc(C)cc1)N1CCC(c2ccn(C)n2)CC1`, for which the “% Inhibition” value was 0% and the Z score is on record as 0.04.
As to `O=C(Nc1cccc(Cl)c1)NC1CC2CCC1C2` (stereo not drawn), the “% Inhibition” value is -15% and the Z score is given as 1.71.
For the compound `CO[C@H]1C[C@H](C(=O)N2CCCC2(C)C)N(S(C)(=O)=O)C1`, the “% Inhibition” value is -12% and the Z score came out at 1.9.
On the same counts, the results for `CC(C)C12OC3C(O)C4CC3C1C4C(=O)N2c1ccc(Br)cc1` (stereo not drawn) are -9% and 1.53.
For `CC(=O)c1ccc(Nc2cc(C(=O)N3CCCC3)nc3ccc(C)cc23)cc1`, the “% Inhibition” value is given as -2% and the Z score is 0.21.
Consider `Cc1cc(C)n(CCCNc2cc3nncn3c(N)n2)n1`, for which the “% Inhibition” value turned out to be 1% and the Z score is on record as -0.13.
`Cn1cncc1-c1nnc([C@H]2CCN(C(=O)c3ccccc3)C2)o1`: the “% Inhibition” value is given as -14% and the Z score came to 2.58.
As to `O=C(c1cccc(C2OCCO2)c1)N(CCC(F)(F)F)C1CCC1`, the “% Inhibition” value is -3% and the Z score was determined as 0.41.
On the same counts, the results for `CC1CCC(NC(=O)NCC(CO)Cc2ccccn2)C(C)C1` (stereo not drawn) are -13% and 1.54.
As to `Cc1ccccc1CN(C(=O)C1CCCC1)c1ccc(CC(=O)NCC(C)C)cc1`, the “% Inhibition” value was determined as 0% and the Z score came to 0.02.
On to `CN(C)S(=O)(=O)CCN1CCC(c2nc3c(s2)CCCC3)CC1`, for which the “% Inhibition” value was -8% and the Z score was 1.52.
For the compound `CC(C)CC1CC(NC(=O)CO)CCO1` (stereo not drawn), the “% Inhibition” value was -2% and the Z score was 0.45.
`COc1ccc(-c2noc(NCCc3c[nH]c4ccccc34)n2)cc1OC`: the “% Inhibition” value was -1% and the Z score is 0.23.
Taken in the same sequence, the figures for `COC(C)(C)CCC[C@H](C)CCNCC(C)(C)N1CCOCC1` were 1% and -0.18.
As to `OC[C@H](NC1CCC2(CC1)CC2(F)F)c1ccc(F)cc1` (stereo partly drawn), the “% Inhibition” value is on record as -6% and the Z score amounted to 0.96.
On the same counts, the results for `COCc1ccc(C(=O)N[C@@H]2COCC[C@@H]2OCc2c(C)noc2C)o1` are -7% and 1.12.
On the same counts, the results for `Cc1cccc(N(Cc2ccc(C(=O)N3CCOCC3)o2)c2nc(-c3ccc(Cl)cc3)cs2)c1` are -6% and 0.89.
As to `Cc1cccc(-c2ncc(C(=O)N3CCCCCCC3)c(O)n2)c1`, the “% Inhibition” value worked out at 0% and the Z score was -0.06.
Taken in the same sequence, the figures for `Cc1c(CC(=O)N[C@H]2CCNC2)c2c(n1Cc1ccccc1F)CCCC2=O` were -8% and 1.67.
